According to PubChem BioAssay AID1768 (National Center for Advancing Translational Sciences (NCATS), 2009):
The campaign covered roughly 270,000 compounds. About 620 (0.23%) were called active. Inconclusive means that the source gave no clear call. Such entries were picked first, then a sample of the others. The call rests on the fitted dose curve; in most records, active means well fitted inhibition curve with a large enough effect in the polarisation, with a control signal flat (not every such curve was filed as active); inconclusive means small, poorly fitted or top-dose-only effect, or effect the other way, or a change in a side signal; inactive means no such curve, though single readings can be large or run the other way; the % refers to the polarisation. A potency beside an inconclusive call is a rough fit, not a confirmed value. “Side channel” marks fits to a control or component signal instead of the main read-out.

These compounds were tested against Menin (Homo sapiens) (UniProt O00255) (assay: qHTS Assay for Inhibitors Targeting the Menin-MLL Interaction in MLL Related Leukemias: Competition With Texas Red Labeled MLL-derived Mutant Peptide). Conditions: fluorescence polarization; series mostly up to 61.6 µM.
Chain of UniProt O00255 (O00255 whole entry, looked up): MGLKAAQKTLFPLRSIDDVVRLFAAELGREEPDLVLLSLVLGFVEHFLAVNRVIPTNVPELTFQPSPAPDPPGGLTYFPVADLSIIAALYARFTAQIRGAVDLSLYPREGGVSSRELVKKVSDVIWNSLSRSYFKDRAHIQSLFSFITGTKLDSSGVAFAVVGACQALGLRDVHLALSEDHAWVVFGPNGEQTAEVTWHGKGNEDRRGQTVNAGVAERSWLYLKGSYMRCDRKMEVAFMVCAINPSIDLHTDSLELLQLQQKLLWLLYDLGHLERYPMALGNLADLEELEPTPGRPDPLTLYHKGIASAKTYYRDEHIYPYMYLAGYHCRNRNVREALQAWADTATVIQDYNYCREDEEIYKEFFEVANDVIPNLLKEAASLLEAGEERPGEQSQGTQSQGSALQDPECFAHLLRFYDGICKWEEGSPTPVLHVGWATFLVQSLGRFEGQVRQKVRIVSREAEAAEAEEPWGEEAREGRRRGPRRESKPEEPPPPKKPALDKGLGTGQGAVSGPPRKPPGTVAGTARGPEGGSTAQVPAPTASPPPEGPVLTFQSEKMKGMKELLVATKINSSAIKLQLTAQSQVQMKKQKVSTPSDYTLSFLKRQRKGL
Potency means the concentration at half of the fitted maximal effect; tags describe the fitted curve by direction and shape or compound fluorescence and quenching.

Potency, inconclusive:
CN(CC(O)COC(c1ccccc1)c1ccccc1)C1CCCCC1 (stereo unspecified) 39.8 µM [inhibitor, single point]
O=[N+]([O-])c1ccc(S(=O)(=O)Nc2nc(-c3ccccc3)cs2)cc1 25.1 µM [quencher, side channel, partial curve]
CC1(C)CC(=O)C(C=Nc2ccc(N)cc2)=C(O)C1 39.8 µM [inhibitor, single point]
C=CCN1C(=O)/C(=C\c2ccc(OC(=O)c3ccco3)c(OC)c2)SC1=S 11.2 µM [fluorescent, side channel, partial curve]
CCc1sc2nc(SCC(=O)Nc3cc(C)on3)n(-c3cccc(OC)c3)c(=O)c2c1C 20 µM [fluorescent, side channel, partial curve, poor fit]
CC(C)(C)c1csc(NC(=O)Cc2cccs2)n1 35.5 µM [quencher, side channel, single point]
COc1cc2c(cc1OC)CN(Cc1cc(OC)c3c(c1)OCO3)CC2 0.0501 µM [inhibitor, full curve, poor fit]
COc1cc(C(=O)N/N=C/c2cn(Cc3ccccc3)c3ccccc23)ccc1O 12.6 µM [quencher, side channel, partial curve]
COc1cc(/C=c2\s/c(=C(/C#N)C(=O)N3CCCC3)n(-c3ccccc3)c2=O)ccc1O 15.8 µM [fluorescent, side channel, partial curve]
Cc1nc2c(C(=O)NCCC(C)C)c[nH]n2c(=O)c1Cc1ccccc1F 22.4 µM [quencher, side channel, single point]
CCCn1c(=O)[nH]c2nc(-c3ccc(S(=O)(=O)O)cc3)[nH]c2c1=O 39.8 µM [inhibitor, single point]
COc1ccc(C(=O)Nc2ccc(S(=O)(=O)N3CCOCC3)cc2)cc1[N+](=O)[O-] 25.1 µM [quencher, side channel, partial curve]
O=C(COc1ccccc1[N+](=O)[O-])c1ccccc1 8.91 µM [fluorescent, side channel, partial curve]
CCc1ccc(-c2cc(C(=O)Nc3ccc(S(=O)(=O)NC(C)=O)cc3)c3ccccc3n2)cc1 8.91 µM [quencher, side channel, partial curve]
COCC1CCN(C(=O)c2cc(COc3ccc(-n4cncn4)cc3)on2)CC1 39.8 µM [inhibitor, single point]
OC(c1ccccc1)(C1CCCCC1)C(CN1CCOCC1)c1ccccc1 (stereo unspecified) 15.8 µM [fluorescent, side channel, partial curve]
C/C=C/c1ccc(OCC(=O)NCc2ccccc2OC)c(OC)c1 11.2 µM [fluorescent, side channel, partial curve]
O=C(CN1CCCCC1)NNc1nc(-c2ccccc2)c2cc(Cl)ccc2n1 7.08 µM [fluorescent, side channel, partial curve]
OC(CN1CCN(c2cccc(Cl)c2)CC1)C(c1ccccc1)c1ccccc1 (stereo unspecified) 8.91 µM [fluorescent, side channel, full curve]
Cc1ccc(C)c(NS(=O)(=O)c2ccc3[nH]c(=O)oc3c2)c1 31.6 µM [quencher, side channel, single point]
C/C(Cc1ccccc1)=N\NC(=O)CNC(=O)c1ccc(C(C)(C)C)cc1 25.1 µM [fluorescent, side channel, single point]
CSc1ccc(CNCc2ccc3c(c2)OCO3)cc1 39.8 µM [fluorescent, side channel, single point]
COC(=O)CCCSc1nccn1-c1ccccc1 7.94 µM [inhibitor, full curve, poor fit]
Cc1nc(N/N=C\c2ccc3c(c2)OCO3)sc1C 39.8 µM [quencher, side channel, single point]
CC1=NN(C(N)=S)C(=O)C1N=Nc1ccc(O)cc1 (stereo unspecified) 39.8 µM [quencher, side channel, single point]
CCCC(=O)Nc1ccc2c(c1)c1ccccc1n2CC 28.2 µM [quencher, side channel, single point]
Cc1ccc(-c2cc(-c3ccccc3Cl)[nH]n2)c(O)c1 28.2 µM [quencher, side channel, single point]
CCOc1ccc(/C=N/NC(=O)C(=O)NCc2ccco2)cc1 31.6 µM [fluorescent, side channel, single point]
Cc1cccc(N2CC(C(=O)Nc3nnc(SCC(=O)Nc4nccs4)s3)CC2=O)c1 (stereo unspecified) 11.2 µM [quencher, side channel, partial curve]
CCc1ccc(C(=O)Nc2cccc(-c3nn[nH]n3)c2)s1 15.8 µM [quencher, side channel, partial curve]
O=c1[nH][nH]c2cc(=O)n(-c3cccc(C(F)(F)F)c3)nc12 15.8 µM [quencher, side channel, partial curve]
CCOc1ccc(C(=O)Cc2ccc3oc(C(=O)O)cc3c2)c(O)c1 35.5 µM [quencher, side channel, single point]
Cc1ccc(-c2nc(COC(=O)c3c(C)noc3C)cs2)cc1 14.1 µM [fluorescent, side channel, partial curve]
COC(=O)C1=C(C(=O)OC)SC(=C2C(=S)C(C)(C)N(C(=O)CC(C)C)c3ccccc32)S1 28.2 µM [quencher, side channel, single point]
CCC(C)Nc1nc(OCC(F)(F)F)nc(OCC(F)(F)F)n1 (stereo unspecified) 14.1 µM [inhibitor, partial curve]
CCCCN(C)C1=CC2=CC(=C(C#N)C#N)CCC2CC1 (stereo unspecified) 22.4 µM [fluorescent, side channel, partial curve]
C/C(N)=C(/C#N)C(=O)CSc1nc(-c2ccccc2)c(-c2ccccc2)o1 20 µM [quencher, side channel, partial curve]
O=c1c2ccccc2[nH]c(=S)n1CCCN1CCN(C2CCCCC2)CC1 22.4 µM [inhibitor, single point]
CC(C)C(=O)Nc1ccc(NC(=S)NC(=O)c2ccccc2F)cc1 17.8 µM [inhibitor, single point]
COc1cc(C2Nc3c(F)cccc3C3C=CCC32)cc(Br)c1OC (stereo unspecified) 14.1 µM [quencher, partial curve]
CCOC(=O)c1ccc(NC(=O)C2(c3ccccc3)CCCC2)cc1 35.5 µM [inhibitor, partial curve]
CCOc1cccc(CNCCO)c1OCc1ccc(Cl)cc1 20 µM [fluorescent, side channel, partial curve]
CC1=NN(c2nc(-c3ccc(C#N)cc3)cs2)C(=O)C1 28.2 µM [quencher, side channel, partial curve]
C=CCNC(=S)N1CCc2c([nH]c3ccccc23)C1C (stereo unspecified) 25.1 µM [quencher, side channel, single point]
O=C1C(Cl)=C(Nc2ccccc2O)C(=O)N1c1ccccc1 20 µM [quencher, side channel, single point]
CCOC(=O)C1(Cc2ccccc2C(F)(F)F)CCN(CCCn2cccn2)CC1 31.6 µM [fluorescent, side channel, single point]
COc1ccc(Nc2nc(Nc3ccc(OC)cc3)nc(-n3[nH]c(=O)c(C)c3C)n2)cc1 4.47 µM [quencher, side channel, full curve, poor fit]
COc1ccc(/C=c2\sc3nc(-c4ccccc4)c(-c4ccccc4)n3c2=O)cc1OC 25.1 µM [quencher, side channel, single point]
COC(=O)c1ccccc1NC(=S)NC(NC(=O)COc1ccccc1)C(Cl)(Cl)Cl (stereo unspecified) 39.8 µM [inhibitor, single point]
CCCCCCOc1ccc(N2C(=O)CC(N3CCN(CCN=CC4C(=O)CC(C)(C)CC4=O)CC3)C2=O)cc1 (stereo unspecified) 15.8 µM [fluorescent, side channel, partial curve]
CCC(Oc1ccccc1)C(=O)NC1CCSC1=O (stereo unspecified) 17.8 µM [quencher, side channel, single point]
CC(C)(C)c1ccc(C(=O)Cn2cnnc2C#N)cc1 20 µM [inhibitor, partial curve]

Potency, inactive:
Cc1cccc(NC(=O)c2cc(S(=O)(=O)N3CCCC3)cn2C)c1
CS(=O)(=O)N1CCN(C(=O)c2cc(-c3cccs3)nc3ccccc23)CC1
CC(C)(O)[C@@H]1CCC[N+]2(C)CCCC[C@H]12 (stereo partly specified)
O=C(NC(=S)Nc1cc([N+](=O)[O-])ccc1Cl)c1ccccc1
